Measured values: US7579486B2, “Metalloprotein inhibitors” (Regents of the University of California, San Diego, priority 2004, dated 2009)
Like-named read-outs stand apart in the source and are kept apart here.

Tests used:
[1] = molecular target: T1, human MMP-3 catalytic domain (Homo sapiens, UniProt P08254); test: biochemical
[2] = molecular target: T1, human MMP-3 catalytic domain; settings: for IC50: read-out: IC50 against MMP-3, fluorescence-based assay, 1 h at 37° C. with inhibitor, pH 6.0

| IC50 [1] [nM] | IC50 [2] [nM] | SMILES | also measured |
| --- | --- | --- | --- |
| 71 | – | O=C(NCc1ccc(/C=C/c2ccccc2)cc1)c1occc(=O)c1O [PY-Stil, (E)-3-hydroxy-4-oxo-N-(4-styrylbenzyl)-4H-pyran-2-carboxamide] | – |
| – | – | O=C(Nc1ccc(-c2ccccc2)cc1)c1cc(=O)c(O)co1 [CA1] | inhibition at 50 µM ([1]; read-out: inhibition of MMP-3): 25% |
| 943 | – | Cc1cc(=O)c(O)c(C(=O)NCc2ccc(-c3ccccc3)cc2)[nH]1 [AM-2/NH, N-(biphenyl-4-ylmethyl)-3-hydroxy-6-methyl-4-oxo-1,4-dihydropyridine-2-carboxamide] | – |
| 930000 | – | O=C(CCc1ccccc1)NCc1cc(=O)c(O)co1 [KA3] | – |
| – | 19 | Cc1cc(=O)c(O)c(C(=O)NCc2ccc(-c3ccc(-c4ccccc4)cc3)cc2)o1 [AM-6, 3-Hydroxy-6-methyl-pyran-4(1H)-one-2-carboxy-N-(4-biphenylbenzylamide)] | IC50 against MMP-3, in words [2]: nanomolar range; selectivity for MMP-3 over MMP-2 [2]: > 2500 fold |
| 400000 | – | O=C(CCCc1ccccc1)NCc1cc(=O)c(O)co1 [KA4] | – |
| 200000 | – | O=C(Cc1ccccc1)NCc1cc(=O)c(O)co1 [KA2] | – |
| 90000 | – | O=C(CCc1ccccc1)NCc1cc(=S)c(O)co1 [TKA3] | – |
| – | 2400 | COc1ccc(CNC(=O)c2oc(C)cc(=O)c2O)cc1 [AM-4] | – |
| – | 10 | Cc1cc(=O)c(O)c(C(=O)NCc2ccc(-c3ccc(C#N)cc3)cc2)o1 [AM-5, 3-Hydroxy-6-methyl-pyran-4(1H)-one-2-carboxy-N-(4-(4-cyanophenyl)benzylamide)] | IC50 against MMP-3, in words [2]: nanomolar range |
| – | > 50000 | Cc1cc(=O)c(O)c(C(=O)Nc2ccc(-c3ccccc3)cc2)o1 [AM-1, 3-Hydroxy-6-methyl-pyran-4(1H)-one-2-carboxy-N-(4-biphenylamide)] | – |

| SMILES | IC50 [1] [nM] | IC50 [2] [nM] | also measured |
| --- | --- | --- | --- |
| Cc1cc(=O)c(O)c(C(=O)NCc2ccc(-c3ccccc3)cc2)o1 [AM-2, 3-Hydroxy-6-methyl-pyran-4(1)-one-2-carboxy-N-(4-phenylbenzylamide)] | – | 240 | IC50 against MMP-3, in words [2]: nanomolar range |
| O=C(NCc1ccc(-c2ccccc2)cc1)c1cccc(=O)n1O [compound 20] | 560 | – | – |
